In the supplement of paper PMC11741623:
The other results are listed elsewhere or left out. Interaction screen of human proteins with wild-type SARS-CoV-2 proteins by split-DHFR complementation in yeast, 1 µg/mL methotrexate. Value = fitness of the pair (three or more lineages) minus that of the viral protein without a human partner, on a scale set by negative (0) and fused positive (1) controls, mean of up to three cultures; higher = more likely to interact. Active = false discovery rate below 0.05 (one-sided t-test) in at least one culture. Nearly all pairs are not hits, and differences among them are mostly noise (correlation between cultures about 0.3); most hits were seen in one culture only. Human sequences are the Swiss-Prot entries looked up by gene name; the clone may be another isoform. NSP2 values were corrected by the authors for a growth advantage. Listed are human proteins with a hit and a random twelfth of the others.

B1: DGCR8, Q8WYQ5 (protein)
chain: METDESPSPLPCGPAGEAVMESRARPFQALPREQSPPPPLQTSSGAEVMDVGSGGDGQSELPAEDPFNFYGASLLSKGSFSKGRLLIDPNCSGHSPRTARHAPAVRKFSPDLKLLKDVKISVSFTESCRSKDRKVLYTGAERDVRAECGLLLSPVSGDVHACPFGGSVGDGVGIGGESADKKDEENELDQEKRVEYAVLDELEDFTDNLELDEEGAGGFTAKAIVQRDRVDEEALNFPYEDDFDNDVDALLEEGLCAPKKRRTEEKYGGDSDHPSDGETSVQPMMTKIKTVLKSRGRPPTEPLPDGWIMTFHNSGVPVYLHRESRVVTWSRPYFLGTGSIRKHDPPLSSIPCLHYKKMKDNEEREQSSDLTPSGDVSPVKPLSRSAELEFPLDEPDSMGADPGPPDEKDPLGAEAAPGALGQVKAKVEVCKDESVDLEEFRSYLEKRFDFEQVTVKKFRTWAERRQFNREMKRKQAESERPILPANQKLITLSVQDAPTKKEFVINPNGKSEVCILHEYMQRVLKVRPVYNFFECENPSEPFGASVTIDGVTYGSGTASSKKLAKNKAARATLEILIPDFVKQTSEEKPKDSEELEYFNHISIEDSRVYELTSKAGLLSPYQILHECLKRNHGMGDTSIKFEVVPGKNQKSEYVMACGKHTVRGWCKNKRVGKQLASQKILQLLHPHVKNWGSLLRMYGRESSKMVKQETSDKSVIELQQYAKKNKPNLHILSKLQEEMKRLAEEREETRKKPKMSIVASAQPGGEPLCTVDV
B2: SLC3A2, P08195 (protein)
chain: MELQPPEASIAVVSIPRQLPGSHSEAGVQGLSAGDDSELGSHCVAQTGLELLASGDPLPSASQNAEMIETGSDCVTQAGLQLLASSDPPALASKNAEVTGTMSQDTEVDMKEVELNELEPEKQPMNAASGAAMSLAGAEKNGLVKIKVAEDEAEAAAAAKFTGLSKEELLKVAGSPGWVRTRWALLLLFWLGWLGMLAGAVVIIVRAPRCRELPAQKWWHTGALYRIGDLQAFQGHGAGNLAGLKGRLDYLSSLKVKGLVLGPIHKNQKDDVAQTDLLQIDPNFGSKEDFDSLLQSAKKKSIRVILDLTPNYRGENSWFSTQVDTVATKVKDALEFWLQAGVDGFQVRDIENLKDASSFLAEWQNITKGFSEDRLLIAGTNSSDLQQILSLLESNKDLLLTSSYLSDSGSTGEHTKSLVTQYLNATGNRWCSWSLSQARLLTSFLPAQLLRLYQLMLFTLPGTPVFSYGDEIGLDAAALPGQPMEAPVMLWDESSFPDIPGAVSANMTVKGQSEDPGSLLSLFRRLSDQRSKERSLLHGDFHAFSAGPGLFSYIRHWDQNERFLVVLNFGDVGLSAGLQASDLPASASLPAKADLLLSTQPGREEGSPLELERLKLEPHEGLLLRFPYAA
B3: ELOVL1, Q9BW60 (protein)
chain: MEAVVNLYQEVMKHADPRIQGYPLMGSPLLMTSILLTYVYFVLSLGPRIMANRKPFQLRGFMIVYNFSLVALSLYIVYEFLMSGWLSTYTWRCDPVDYSNSPEALRMVRVAWLFLFSKFIELMDTVIFILRKKDGQVTFLHVFHHSVLPWSWWWGVKIAPGGMGSFHAMINSSVHVIMYLYYGLSAFGPVAQPYLWWKKHMTAIQLIQFVLVSLHISQYYFMSSCNYQYPVIIHLIWMYGTIFFMLFSNFWYHSYTKGKRLPRALQQNGAPGIAKVKAN

These binders were tested against SARS-CoV-2 E (assay: yeast fitness gain over the viral ORF with no human partner (scaled fitness); higher = more likely to interact).
Experimental: (§1)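 Split mouse DHFR complementation in pooled diploid yeast: human ORFeome clones carry one fragment and viral ORFs the other; barcoded lineages compete in 1 µg/mL methotrexate and fitness is read by barcode sequencing in up to three cultures.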

With B1 as the binder, how does the yeast fitness gain read?
Its yeast fitness gain is inactive: 0.0211.

Which yeast fitness gain does the source give for B2 here?
Its yeast fitness gain is inactive: -0.0127.

With B3 as the binder, how does the yeast fitness gain read?
The yeast fitness gain was inactive: 0.196.

These binders were tested against SARS-CoV-2 M in the same assay as above.
Experimental: as §1

B1 was tested. Which yeast fitness gain did it give?
The yeast fitness gain was inactive: -0.0551.

B2 was tested. Which yeast fitness gain did it give?
Its yeast fitness gain is inactive: 0.0477.

Which yeast fitness gain does the source give for B3 here?
Its yeast fitness gain is inactive: 0.0279.

The binders below were run against SARS-CoV-2 N in the same assay as above.
Experimental: as §1

With B1 as the binder, how does the yeast fitness gain read?
Its yeast fitness gain is active: 0.518.

With B2 as the binder, how does the yeast fitness gain read?
Its yeast fitness gain is inactive: 0.116.

For B3, which yeast fitness gain is on record?
Its yeast fitness gain is inactive: 0.0262.

The binders below were run against SARS-CoV-2 NSP1 in the same assay as above.
Experimental: as §1

Which yeast fitness gain does the source give for B1 here?
The yeast fitness gain was inactive: 0.0116.

Which yeast fitness gain does the source give for B2 here?
Its yeast fitness gain is inactive: -0.0606.

Which yeast fitness gain does the source give for B3 here?
The yeast fitness gain was inactive: 0.0109.

These binders were tested against SARS-CoV-2 NSP10 in the same assay as above.
Experimental: as §1

How did the yeast fitness gain turn out when B1 was run?
The yeast fitness gain was inactive: 0.00162.

For B2, which yeast fitness gain is on record?
Its yeast fitness gain is inactive: 0.0365.

For B3, which yeast fitness gain is on record?
The yeast fitness gain was inactive: 0.032.

These binders were tested against SARS-CoV-2 NSP12 in the same assay as above.
Experimental: as §1

With B1 as the binder, how does the yeast fitness gain read?
The yeast fitness gain was inactive: 0.0466.

How did the yeast fitness gain turn out when B2 was run?
The yeast fitness gain was inactive: 0.033.

How did the yeast fitness gain turn out when B3 was run?
Its yeast fitness gain is inactive: 0.0205.

What follows are binders tested against SARS-CoV-2 NSP13 in the same assay as above.
Experimental: as §1

For B1, which yeast fitness gain is on record?
The yeast fitness gain was inactive: 0.0165.

For B2, which yeast fitness gain is on record?
The yeast fitness gain was inactive: -0.0401.

B3 was tested. Which yeast fitness gain did it give?
The yeast fitness gain was inactive: 0.0364.

The binders below were run against SARS-CoV-2 NSP14 in the same assay as above.
Experimental: as §1

How did the yeast fitness gain turn out when B1 was run?
The yeast fitness gain was inactive: 0.0423.

How did the yeast fitness gain turn out when B2 was run?
The yeast fitness gain was inactive: 0.0444.

With B3 as the binder, how does the yeast fitness gain read?
The yeast fitness gain was inactive: -0.0313.

These binders were tested against SARS-CoV-2 NSP15 in the same assay as above.
Experimental: as §1

How did the yeast fitness gain turn out when B1 was run?
Its yeast fitness gain is inactive: 0.0377.

B2 was tested. Which yeast fitness gain did it give?
The yeast fitness gain was inactive: 0.00972.

With B3 as the binder, how does the yeast fitness gain read?
The yeast fitness gain was inactive: 0.0665.

These binders were tested against SARS-CoV-2 NSP16 in the same assay as above.
Experimental: as §1

B1 was tested. Which yeast fitness gain did it give?
The yeast fitness gain was inactive: 0.015.

With B2 as the binder, how does the yeast fitness gain read?
Its yeast fitness gain is inactive: -0.0739.

For B3, which yeast fitness gain is on record?
Its yeast fitness gain is inactive: -0.00922.

The binders below were run against SARS-CoV-2 NSP2 in the same assay as above.
Experimental: as §1

B1 was tested. Which yeast fitness gain did it give?
The yeast fitness gain was inactive: 0.0675.

B2 was tested. Which yeast fitness gain did it give?
The yeast fitness gain was inactive: -0.129.

How did the yeast fitness gain turn out when B3 was run?
The yeast fitness gain was inactive: -0.107.

These binders were tested against SARS-CoV-2 NSP4 in the same assay as above.
Experimental: as §1

How did the yeast fitness gain turn out when B1 was run?
The yeast fitness gain was inactive: -0.0996.

How did the yeast fitness gain turn out when B2 was run?
The yeast fitness gain was inactive: 0.0218.

With B3 as the binder, how does the yeast fitness gain read?
Its yeast fitness gain is inactive: 0.0952.

Each binder was assayed against SARS-CoV-2 NSP5 in the same assay as above.
Experimental: as §1

How did the yeast fitness gain turn out when B1 was run?
Its yeast fitness gain is inactive: -0.0402.

With B2 as the binder, how does the yeast fitness gain read?
Its yeast fitness gain is inactive: -0.00171.

How did the yeast fitness gain turn out when B3 was run?
The yeast fitness gain was inactive: 0.0188.

The binders below were run against SARS-CoV-2 NSP6 in the same assay as above.
Experimental: as §1

For B1, which yeast fitness gain is on record?
The yeast fitness gain was inactive: 0.032.

How did the yeast fitness gain turn out when B2 was run?
The yeast fitness gain was inactive: -0.0102.

Which yeast fitness gain does the source give for B3 here?
The yeast fitness gain was inactive: 0.0483.

These binders were tested against SARS-CoV-2 NSP7 in the same assay as above.
Experimental: as §1

For B1, which yeast fitness gain is on record?
Its yeast fitness gain is inactive: 0.0113.

With B2 as the binder, how does the yeast fitness gain read?
The yeast fitness gain was inactive: -0.0278.

With B3 as the binder, how does the yeast fitness gain read?
Its yeast fitness gain is inactive: 0.0578.

What follows are binders tested against SARS-CoV-2 NSP8 in the same assay as above.
Experimental: as §1

Which yeast fitness gain does the source give for B1 here?
The yeast fitness gain was inactive: 0.00423.

With B2 as the binder, how does the yeast fitness gain read?
Its yeast fitness gain is inactive: 0.109.

With B3 as the binder, how does the yeast fitness gain read?
The yeast fitness gain was inactive: 0.08.

The binders below were run against SARS-CoV-2 NSP9 in the same assay as above.
Experimental: as §1

With B1 as the binder, how does the yeast fitness gain read?
The yeast fitness gain was inactive: 0.0106.

For B2, which yeast fitness gain is on record?
The yeast fitness gain was inactive: -0.0279.

B3 was tested. Which yeast fitness gain did it give?
Its yeast fitness gain is inactive: 0.0443.

Each binder was assayed against SARS-CoV-2 ORF10 in the same assay as above.
Experimental: as §1

For B1, which yeast fitness gain is on record?
Its yeast fitness gain is inactive: 0.0472.

How did the yeast fitness gain turn out when B2 was run?
The yeast fitness gain was inactive: -0.036.

B3 was tested. Which yeast fitness gain did it give?
Its yeast fitness gain is inactive: 0.0425.

What follows are binders tested against SARS-CoV-2 ORF3A in the same assay as above.
Experimental: as §1

How did the yeast fitness gain turn out when B1 was run?
The yeast fitness gain was inactive: 0.00458.

Which yeast fitness gain does the source give for B2 here?
Its yeast fitness gain is inactive: -0.0268.

With B3 as the binder, how does the yeast fitness gain read?
Its yeast fitness gain is inactive: 0.0617.

Each binder was assayed against SARS-CoV-2 ORF3B in the same assay as above.
Experimental: as §1

B1 was tested. Which yeast fitness gain did it give?
Its yeast fitness gain is inactive: 0.0198.

How did the yeast fitness gain turn out when B2 was run?
The yeast fitness gain was inactive: -0.00506.

With B3 as the binder, how does the yeast fitness gain read?
Its yeast fitness gain is inactive: 0.0289.

What follows are binders tested against SARS-CoV-2 ORF6 in the same assay as above.
Experimental: as §1

How did the yeast fitness gain turn out when B1 was run?
The yeast fitness gain was inactive: -0.0153.

How did the yeast fitness gain turn out when B2 was run?
Its yeast fitness gain is inactive: -0.0273.

How did the yeast fitness gain turn out when B3 was run?
Its yeast fitness gain is inactive: 0.0217.

What follows are binders tested against SARS-CoV-2 ORF7A in the same assay as above.
Experimental: as §1

Which yeast fitness gain does the source give for B1 here?
Its yeast fitness gain is inactive: -0.0312.

For B2, which yeast fitness gain is on record?
Its yeast fitness gain is inactive: 0.00363.

B3 was tested. Which yeast fitness gain did it give?
The yeast fitness gain was inactive: 0.156.

The binders below were run against SARS-CoV-2 ORF7B in the same assay as above.
Experimental: as §1

For B1, which yeast fitness gain is on record?
The yeast fitness gain was inactive: -0.0529.

For B2, which yeast fitness gain is on record?
The yeast fitness gain was inactive: -0.00779.

How did the yeast fitness gain turn out when B3 was run?
The yeast fitness gain was active: 0.226.

What follows are binders tested against SARS-CoV-2 ORF8 in the same assay as above.
Experimental: as §1

How did the yeast fitness gain turn out when B1 was run?
Its yeast fitness gain is inactive: 0.00504.

How did the yeast fitness gain turn out when B2 was run?
Its yeast fitness gain is inactive: -0.0099.

B3 was tested. Which yeast fitness gain did it give?
The yeast fitness gain was inactive: -0.0225.

What follows are binders tested against SARS-CoV-2 ORF9B in the same assay as above.
Experimental: as §1

With B1 as the binder, how does the yeast fitness gain read?
Its yeast fitness gain is inactive: 0.00679.

How did the yeast fitness gain turn out when B2 was run?
The yeast fitness gain was inactive: 0.0312.

Which yeast fitness gain does the source give for B3 here?
The yeast fitness gain was inactive: -0.000208.

The binders below were run against SARS-CoV-2 ORF9Bwu (the 73-codon ORF) in the same assay as above.
Experimental: as §1

B1 was tested. Which yeast fitness gain did it give?
The yeast fitness gain was inactive: 0.0194.

How did the yeast fitness gain turn out when B2 was run?
The yeast fitness gain was inactive: 0.0178.

With B3 as the binder, how does the yeast fitness gain read?
Its yeast fitness gain is inactive: 0.0414.

The binders below were run against SARS-CoV-2 S in the same assay as above.
Experimental: as §1

How did the yeast fitness gain turn out when B1 was run?
The yeast fitness gain was inactive: 0.0305.

For B2, which yeast fitness gain is on record?
Its yeast fitness gain is inactive: 0.0687.

Which yeast fitness gain does the source give for B3 here?
Its yeast fitness gain is inactive: 0.0355.
